Test results reported in the supplement of paper PMC11876631.
Where a chain is given by its changes, count along the chain named. Numbers in names are those of the source. ± gives the standard deviation of the averaged measurements. Laboratory Escherichia coli strains with one amino-acid change in an essential protein, pooled on minimal glucose agar with carbenicillin or gentamicin at twice the control MIC (plus kanamycin and chloramphenicol for the plasmids), 48 h. Fold change of barcode share against drug-free plates; higher = less susceptible. Active = above 20 in both replicates (the paper's putatively resistant). '<' = one read or none on drug, '>' = one read or none on a drug-free plate. Shares are relative, so most strains fall below 1 when a few take over. Listed are strains with at least 15 reads on both drug-free plates, and hits; most hits rest on fewer reference reads. Replicate rank correlation about 0.5. Edits are read from barcodes.

B1: ispE L115D (protein)
chain: MRTQWPSPAKLNLFLYITGQRADGYHTLQTLFQFLDYGDTISIELRDDGDIRLLTPVEGVEHEDNLIVRAARLLMKTAADSGRLPTGSGANISIDKRLPMGGGLGGGSSNAATVDVALNHLWQCGLSMDELAEMGLTLGADVPVFVRGHAAFAEGVGEILTPVDPPEKWYLVAHPGVSIPTPVIFKDPELPRNTPKRSIETLLKCEFSNDCEVIARKRFREVDAVLSWLLEYAPSRLTGTGACVFAEFDTESEARQVLEQAPEWLNGFVAKGANLSPLHRAML
B2: ispE F145D (protein)
chain: B1 chain with D115L, F145D
B3: ispF L153A (protein)
chain: MRIGHGFDVHAFGGEGPIIIGGVRIPYEKGLLAHSDGDVALHALTDALLGAAALGDIGKLFPDTDPAFKGADSRELLREAWRRIQAKGYTLGNVDVTIIAQAPKMLPHIPQMRVFIAEDLGCHMDDVNVKATTTEKLGFTGRGEGIACEAVAALIKATK
B4: ispF L153W (protein)
chain: B3 chain with A153W
B5: ispF L153Q (protein)
chain: B3 chain with A153Q
B6: ispG V84Q (protein)
chain: MHNQAPIQRRKSTRIYVGNVPIGDGAPIAVQSMTNTRTTDVEATVNQIKALERVGADIVRVSVPTMDAAEAFKLIKQQVNVPLQADIHFDYRIALKVAEYGVDCLRINPGNIGNEERIRMVVDCARDKNIPIRIGVNAGSLEKDLQEKYGEPTPQALLESAMRHVDHLDRLNFDQFKVSVKASDVFLAVESYRLLAKQIDQPLHLGITEAGGARSGAVKSAIGLGLLLSEGIGDTLRVSLAADPVEEIKVGFDILKSLRIRSRGINFIACPTCSRQEFDVIGTVNALEQRLEDIITPMDVSIIGCVVNGPGEALVSTLGVTGGNKKSGLYEDGVRKDRLDNNDMIDQLEARIRAKASQLDEARRIDVQQVEK
B7: ispG V84D (protein)
chain: B6 chain with Q84D
B8: ispG L105Q (protein)
chain: B6 chain with Q84V, L105Q
B9: ispG V122A (protein)
chain: B6 chain with Q84V, V122A

target: Escherichia coli (laboratory strain); experiment: barcode share on antibiotic plates over drug-free plates; higher = less susceptible; conditions: antibiotic: gentamicin; 2× MIC (MIC 0.45 µg/mL)
Method: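 A pool of E. coli strains, each edited to carry one amino-acid change in an essential protein, was grown for 48 h on minimal glucose agar with or without antibiotic; strain barcodes were sequenced; mean of two replicates.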

Row | Protein | fold change of barcode share
1 | B1 | > 45.4 [active]
2 | B2 | > 1390 [active]
3 | B3 | < 0.00152
4 | B4 | < 0.00375
5 | B5 | 0.0209 ± 0.022
6 | B6 | 183 [active]
7 | B7 | 1.75 ± 1.1
8 | B8 | 0.541 ± 0.73
9 | B9 | 0.00518 ± 0.0038
